# According to the supplement of paper PMC4604168 (melanoma cell lines):
# The list shows a part of the results. Many values rest on one well or one pass, so single values are uncertain.
# Columns and labels:
# Test in all cases: cell count relative to DMSO control; melanoma cells; higher = more viable cells
# Conditions in all cases: library dose: low library concentration; 72 h
# [1] = test system: WM115
# [2] = test system: WM1716
# [3] = test system: WM1745
# [4] = test system: WM3526
# [5] = test system: WM3619
# [6] = test system: WM451Lu
# 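Also: cell number obtained by counting DAPI-stained nuclei in high-throughput microscope images with image analysis software, screen run in 1,536-well plates.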
SMILES,cell count [1] [%],cell count [2] [%],cell count [3] [%],cell count [4] [%],cell count [5] [%],cell count [6] [%]
"CC(C)C[C@H](NC(=O)[C@H](Cc1ccccc1)NC(=O)c1cnccn1)B(O)O [Bortezomib] + C[C@@H](Oc1cc(-c2cnn(C3CCNCC3)c2)cnc1N)c1c(Cl)ccc(F)c1Cl [Crizotinib] (first compound 0.001 µM, partner dose 0.2 µM)",91.8,24.3,67,61.7,15.1,99
"CC(C)C[C@H](NC(=O)[C@H](Cc1ccccc1)NC(=O)c1cnccn1)B(O)O [Bortezomib] + CCCCCCCCCCCC1=C(O)C(=O)C=C(O)C1=O [Embelin] (first compound 0.001 µM, partner dose 1.2 µM)",109,134,110,102,113,86.9
"COc1ccc(C2=N[C@@H](c3ccc(Cl)cc3)[C@@H](c3ccc(Cl)cc3)N2C(=O)N2CCNC(=O)C2)c(OC(C)C)c1 [Nutlin-3] + Cn1cc(/C=C2\C(=O)Nc3cccnc32)c2ccccc21 [GW441756] (first compound 0.1 µM, partner dose 0.4 µM)",80.4,88.1,88.8,110,104,96.9
"Cn1c(=O)n(-c2ccc(C(C)(C)C#N)cc2)c2c3cc(-c4cnc5ccccc5c4)ccc3ncc21 + C[C@@H](Oc1cc(-c2cnn(C3CCNCC3)c2)cnc1N)c1c(Cl)ccc(F)c1Cl [Crizotinib] (first compound 0.004 µM, partner dose 0.2 µM)",85.9,105,91.4,99.5,79.4,95.8
"Cn1c(=O)n(-c2ccc(C(C)(C)C#N)cc2)c2c3cc(-c4cnc5ccccc5c4)ccc3ncc21 + O=C(O)[C@@H]1[O][Sb](=[O])([O][Sb]2(=[O])[O][C@H]([C@H](O)CO)[C@H](O)[C@H](C(=O)O)[O]2)[O][C@H]([C@H](O)CO)[C@@H]1O [stibogluconate] (first compound 0.004 µM, partner dose 2 µM)",100,108,105,101,115,94.7
"CC(C)C[C@H](NC(=O)[C@H](Cc1ccccc1)NC(=O)c1cnccn1)B(O)O [Bortezomib] + COc1cc(N2CCC(N3CCN(C)CC3)CC2)ccc1Nc1ncc(Cl)c(Nc2ccccc2S(=O)(=O)C(C)C)n1 [NVP-TAE684] (first compound 0.001 µM, partner dose 0.08 µM)",98.8,47.1,61.8,61.5,28.4,85.2
"CC(C)C[C@H](NC(=O)[C@H](Cc1ccccc1)NC(=O)c1cnccn1)B(O)O [Bortezomib] + Cn1c(Nc2ccc(C(F)(F)F)cc2)nc2cc(Oc3ccnc(-c4ncc(C(F)(F)F)[nH]4)c3)ccc21 [CHIR265] (first compound 0.001 µM, partner dose 0.08 µM)",75.6,22.2,33.1,48.5,7.04,76.6
"Cn1c(=O)n(-c2ccc(C(C)(C)C#N)cc2)c2c3cc(-c4cnc5ccccc5c4)ccc3ncc21 + CC(C)CCN1c2nc(Nc3cc(F)c(O)c(F)c3)ncc2N(C)C(=O)C1C [BID1870] (first compound 0.004 µM, partner dose 0.2 µM)",87.1,101,82.8,54.8,116,109
"CC(C)C[C@H](NC(=O)[C@H](Cc1ccccc1)NC(=O)c1cnccn1)B(O)O [Bortezomib] + NCC(=O)Nc1ccc(-n2nc(C(F)(F)F)cc2-c2ccc3c(ccc4ccccc43)c2)cc1 [OSU03012] (first compound 0.001 µM, partner dose 1 µM)",90.8,44.7,47.5,46.2,16.2,59.3
"Cc1cn(-c2cc(NC(=O)c3ccc(C)c(Nc4nccc(-c5cccnc5)n4)c3)cc(C(F)(F)F)c2)cn1 [nilotinib] + Nc1ncn([C@H]2C[C@H](O)[C@@H](CO)O2)c(=O)n1 [decitabine] (first compound 0.2 µM, partner dose 0.1 µM)",93.8,90.4,93.3,114,92.7,95.4
"Cc1cc(Nc2cc(N3CCN(C)CC3)nc(/C=C/c3ccccc3)n2)n[nH]1 + CO[C@@H]1[C@H](N(C)C(=O)c2ccccc2)C[C@H]2O[C@]1(C)n1c3ccccc3c3c4c(c5c6ccccc6n2c5c31)C(=O)NC4 [Midostaurin] (first compound 0.04 µM, partner dose 0.08 µM)",78.7,70.4,76,102,88.9,108
"COc1ccc(C2=N[C@@H](c3ccc(Cl)cc3)[C@@H](c3ccc(Cl)cc3)N2C(=O)N2CCNC(=O)C2)c(OC(C)C)c1 [Nutlin-3] + CNC(=O)c1cc(Oc2ccc(NC(=O)Nc3ccc(Cl)c(C(F)(F)F)c3)cc2)ccn1 [sorafenib] (first compound 0.1 µM, partner dose 0.4 µM)",93.2,118,89.2,98.1,114,101
"Cn1c(=O)n(-c2ccc(C(C)(C)C#N)cc2)c2c3cc(-c4cnc5ccccc5c4)ccc3ncc21 + CO[C@H]1C[C@@H]2CC[C@@H](C)[C@@](O)(O2)C(=O)C(=O)N2CCCC[C@H]2C(=O)O[C@H]([C@H](C)C[C@@H]2CC[C@@H](OCCO)[C@H](OC)C2)CC(=O)[C@H](C)/C=C(\C)[C@@H](O)[C@@H](OC)C(=O)[C@H](C)C[C@H](C)/C=C/C=C/C=C/1C [everolimus] (first compound 0.004 µM, partner dose 0.02 µM)",61.4,58.9,72.8,46.9,38.9,48.1
"COc1ccc(C2=N[C@@H](c3ccc(Cl)cc3)[C@@H](c3ccc(Cl)cc3)N2C(=O)N2CCNC(=O)C2)c(OC(C)C)c1 [Nutlin-3] + CC(C)C[C@H](NC(=O)[C@H](Cc1ccccc1)NC(=O)c1cnccn1)B(O)O [Bortezomib] (first compound 0.1 µM, partner dose 0.001 µM)",99.7,52.7,92.5,83.7,36,90.5
"COc1ccc(C2=N[C@@H](c3ccc(Cl)cc3)[C@@H](c3ccc(Cl)cc3)N2C(=O)N2CCNC(=O)C2)c(OC(C)C)c1 [Nutlin-3] + CN(NC(=O)CC(=O)NN(C)C(=S)c1ccccc1)C(=S)c1ccccc1 [STA4783] (first compound 0.1 µM, partner dose 0.006 µM)",81.4,68.6,38.1,109,42.8,98
"COc1ccc(C2=N[C@@H](c3ccc(Cl)cc3)[C@@H](c3ccc(Cl)cc3)N2C(=O)N2CCNC(=O)C2)c(OC(C)C)c1 [Nutlin-3] + CN(C)S(=O)(=O)c1ccc2c(c1)/C(=C/c1cc3c([nH]1)CCCC3)C(=O)N2 [SU6656] (first compound 0.1 µM, partner dose 0.4 µM)",82.2,112,83.2,113,122,92
"COc1ccc(C2=N[C@@H](c3ccc(Cl)cc3)[C@@H](c3ccc(Cl)cc3)N2C(=O)N2CCNC(=O)C2)c(OC(C)C)c1 [Nutlin-3] + CN(c1ncccc1CNc1nc(Nc2ccc3c(c2)CC(=O)N3)ncc1C(F)(F)F)S(C)(=O)=O [PF562271] (first compound 0.1 µM, partner dose 0.08 µM)",77.4,89.7,102,95.4,102,67
"CC(C)C[C@H](NC(=O)[C@H](Cc1ccccc1)NC(=O)c1cnccn1)B(O)O [Bortezomib] + CS(=O)(=O)CCNCc1ccc(-c2ccc3ncnc(Nc4ccc(OCc5cccc(F)c5)c(Cl)c4)c3c2)o1 [lapatinib] (first compound 0.001 µM, partner dose 0.8 µM)",92.5,41,59.4,90.5,16.8,96
"Cn1c(=O)n(-c2ccc(C(C)(C)C#N)cc2)c2c3cc(-c4cnc5ccccc5c4)ccc3ncc21 + Cc1ccc(NC(=O)c2cccc(N(C)C)c2)cc1NC(=O)c1ccc(O)cc1 [ZM336372] (first compound 0.004 µM, partner dose 2 µM)",96.6,114,93.1,86.5,94.3,113
"Cn1c(=O)n(-c2ccc(C(C)(C)C#N)cc2)c2c3cc(-c4cnc5ccccc5c4)ccc3ncc21 + Cc1cc(N2CCOCC2)cc2[nH]c(-c3c(NC[C@@H](O)c4cccc(Cl)c4)cc[nH]c3=O)nc12 [BMS536924] (first compound 0.004 µM, partner dose 0.2 µM)",108,71.7,80.8,94,97.4,93.2
"Cn1c(=O)n(-c2ccc(C(C)(C)C#N)cc2)c2c3cc(-c4cnc5ccccc5c4)ccc3ncc21 + CN1CCN(c2ccc3nc(-c4c(N)c5c(F)cccc5[nH]c4=O)[nH]c3c2)CC1 [Dovitinib] (first compound 0.004 µM, partner dose 0.1 µM)",102,113,114,73,91.7,113
"COc1ccc(C2=N[C@@H](c3ccc(Cl)cc3)[C@@H](c3ccc(Cl)cc3)N2C(=O)N2CCNC(=O)C2)c(OC(C)C)c1 [Nutlin-3] + C=CCNC1=C2C[C@@H](C)C[C@H](OC)[C@H](O)[C@@H](C)/C=C(\C)[C@H](OC(N)=O)[C@@H](OC)/C=C\C=C(/C)C(=O)NC(=CC1=O)C2=O [Tanespimycin] (first compound 0.1 µM, partner dose 0.002 µM)",99.2,89.1,107,108,85.1,103
